Publication PMC3306812 (Molecular Cell, 2012)

Target: donor Ub (E2-linked ubiquitin) (UniProt P0CG48 in part, C-terminal Gly76 in oxyester linkage to Ser85 of UbcH5b^C85S)
Test: crystal structure

binding result: binds
B1: OTUB1^Δ[…] (the OTUB1 part of the crystallised fusion) (domain or fragment)
chain: not shown
